Experimental data taken from PMC10668032.
This is one part of the list. At the low end of the ranking the order means little.

These sequences were tested against SIX1-Q177R homeodomain (UniProt Q15475) (assay: universal protein binding microarray). Conditions: Universal all-10-mer PBM (8x60K, AMADID 030236), 300 nM GST-tagged protein, Alexa Fluor 488 anti-GST; buffer, salt, pH and temperature not stated; high values mean tight binding; most listed sequences are background and not binding sites; double strand, one strand shown.
GTTAAAAC showed a binding signal of 0.0066 E-score. ACTCCTGG gave a binding signal of 0.213 E-score. For CGTCTGGA, the binding signal was -0.0703 E-score. In the case of CAGTATCG, the binding signal was 0.0596 E-score. GTAGGGAA was tested, and the binding signal was -0.145 E-score. In the case of CAAATGGA, the binding signal was -0.0785 E-score. CACGGGCG gave a binding signal of 0.204 E-score. In the case of AATTATGT, the binding signal was -0.113 E-score. GGCAGGGA gave a binding signal of -0.159 E-score. In the case of ATAATGCG, the binding signal was 0.00166 E-score. Sequence TGTAGGAA has a binding signal of 0.139 E-score. With CGATTTTC the binding signal was -0.0842 E-score. ACCTGGAC was tested, and the binding signal was 0.0986 E-score. With TCTGCCCA the binding signal was -0.221 E-score. CGGAGGAA showed a binding signal of -0.247 E-score. AACGAAGA gave a binding signal of -0.158 E-score. AGTATAAT gave a binding signal of -0.0795 E-score. CTAATCTA showed a binding signal of -0.151 E-score. Sequence AAGCAAGG has a binding signal of 0.0547 E-score. Sequence CATAAATA has a binding signal of -0.145 E-score. With AGTCACGG the binding signal was 0.012 E-score. Sequence ATCGTGCC has a binding signal of -0.0155 E-score. With CACTAAGC the binding signal was 0.0348 E-score. Sequence CCGACCCA has a binding signal of 0.125 E-score. ATAATCGG was tested, and the binding signal was 0.0508 E-score. For AGCCGTAT, the binding signal was -0.0652 E-score. CGGTCCTC was tested, and the binding signal was -0.266 E-score. ACAAGCTA was tested, and the binding signal was -0.232 E-score. Work on CATGGGCC yielded a binding signal of -0.148 E-score. In the case of TGAAACCA, the binding signal was -0.0541 E-score. In the case of AACATAAC, the binding signal was -0.115 E-score. Work on ACGTAGGG yielded a binding signal of 0.097 E-score. GCGCACTA was tested, and the binding signal was 0.0736 E-score. With GCAGAACC the binding signal was 0.0481 E-score. Sequence AATTCCCA has a binding signal of 0.108 E-score. In the case of ACAGACCG, the binding signal was 0.13 E-score. GATGTTGA was tested, and the binding signal was -0.187 E-score. Work on ACTGGAAA yielded a binding signal of -0.0387 E-score. With GGGCTTTA the binding signal was -0.278 E-score. With ACGCGTCT the binding signal was -0.0848 E-score. For GATCACGC, the binding signal was 0.0462 E-score. AGGTTTGC showed a binding signal of -0.0251 E-score. For GTCTCGCA, the binding signal was -0.116 E-score. For ATTAAAGA, the binding signal was -0.177 E-score. CACCACCC showed a binding signal of 0.336 E-score. ATTAGAAT showed a binding signal of -0.091 E-score. For CCCGAAAG, the binding signal was 0.0237 E-score. Sequence AACTTGAT has a binding signal of -0.166 E-score. With CCCCCACA the binding signal was 0.262 E-score. AATGTCTG showed a binding signal of -0.319 E-score. With CTGAAGAA the binding signal was -0.284 E-score. With CTGTGCGC the binding signal was -0.062 E-score. AATTGCGA gave a binding signal of -0.219 E-score. ATTACGAG was tested, and the binding signal was -0.0304 E-score. For CGGAGCTA, the binding signal was -0.103 E-score. With CTGGAAGA the binding signal was 0.00114 E-score. CCGATGCC showed a binding signal of -0.115 E-score. With AATGCCCA the binding signal was -0.0202 E-score. For GCCATCCC, the binding signal was 0.0164 E-score. AAGCCACG showed a binding signal of -0.213 E-score. GCCTCAGA showed a binding signal of -0.134 E-score. TCCGTTCA showed a binding signal of -0.131 E-score. Work on GGGCCTAC yielded a binding signal of -0.102 E-score. AACAATCG showed a binding signal of -0.123 E-score. Sequence AGTTAAGA has a binding signal of 0.155 E-score. For AGCGACAA, the binding signal was -0.131 E-score. ACCTTAAC gave a binding signal of -0.0349 E-score. Work on AGGCTAAA yielded a binding signal of -0.182 E-score. For GGGCTTAA, the binding signal was -0.0769 E-score. Work on CCCACTGA yielded a binding signal of 0.12 E-score. AAACGTGT was tested, and the binding signal was 0.303 E-score. In the case of TTAGTCAA, the binding signal was -0.144 E-score. In the case of CATGATCC, the binding signal was 0.0836 E-score. AAACCCCA gave a binding signal of 0.143 E-score. CAAACGTC showed a binding signal of -0.294 E-score. CCGGCCTA gave a binding signal of 0.0361 E-score. CAGGGACC showed a binding signal of -0.273 E-score. In the case of ATATGAGG, the binding signal was -0.256 E-score. In the case of AAGAAGGA, the binding signal was 0.0116 E-score. Sequence CATGTGTC has a binding signal of 0.19 E-score. In the case of AGTTACGG, the binding signal was -0.0278 E-score. Work on CTTAGAGC yielded a binding signal of -0.0633 E-score. With AAATGAGA the binding signal was -0.0756 E-score. For AGGATGCA, the binding signal was -0.0849 E-score. GGGGGCTA was tested, and the binding signal was 0.126 E-score. CAATAATC showed a binding signal of -0.0519 E-score. With GAGCGTAC the binding signal was -0.00185 E-score. In the case of CTAACAGA, the binding signal was -0.186 E-score. GTTACTGA was tested, and the binding signal was 0.102 E-score. With TTCTAGAA the binding signal was -0.0414 E-score. AACCTTTC showed a binding signal of 0.0505 E-score. CTGGCAGC was tested, and the binding signal was -0.222 E-score. ATCCCGTG showed a binding signal of 0.228 E-score. CCCGCTCA showed a binding signal of 0.12 E-score. ATTCCACC showed a binding signal of 0.0823 E-score. With GCTAGACA the binding signal was -0.0185 E-score. Work on AAAAGACG yielded a binding signal of -0.142 E-score. AATGTCGG gave a binding signal of -0.0152 E-score. ATTGAGAA showed a binding signal of -0.214 E-score. In the case of CCCCGGGC, the binding signal was 0.114 E-score. Sequence ACGCCTTC has a binding signal of -0.0324 E-score. Sequence GGTTATGA has a binding signal of 0.152 E-score. With AGCCGTTG the binding signal was -0.159 E-score. For GCCTGCGC, the binding signal was -0.191 E-score. AGTTATAG was tested, and the binding signal was 0.0466 E-score. AACCCCGT showed a binding signal of 0.174 E-score. CCTGGTCC was tested, and the binding signal was -0.158 E-score. Work on ATAACCAC yielded a binding signal of 0.0157 E-score. Work on AATGGCTC yielded a binding signal of -0.0391 E-score.
